Source: PubChem BioAssay AID485294 (National Center for Advancing Translational Sciences (NCATS), 2010)
Out of some 370,000 compounds screened, about 150 (0.041%) were called active. This list was built around the results that the source calls inconclusive (neither active nor inactive); the mix of calls is not that of the screen. The call rests on the fitted dose curve; in most records, active means well fitted inhibition curve with a large enough effect; inconclusive means small, poorly fitted or top-dose-only effect; inactive means flat fitted curve, though single readings scatter. Potencies of inconclusive entries are left out as doubtful fits.

Each molecule was assayed against Beta-lactamase (Escherichia coli (strain K12)) (UniProt P00811) (assay: qHTS Inhibitors of AmpC Beta-Lactamase (assay with detergent)). Conditions: AmpC hydrolysis of nitrocefin, absorbance 480 nm, 0.01% Triton; activity change, negative = inhibition: at 114 µM (top of the series).
Sequence of UniProt P00811 (P00811 whole entry, looked up): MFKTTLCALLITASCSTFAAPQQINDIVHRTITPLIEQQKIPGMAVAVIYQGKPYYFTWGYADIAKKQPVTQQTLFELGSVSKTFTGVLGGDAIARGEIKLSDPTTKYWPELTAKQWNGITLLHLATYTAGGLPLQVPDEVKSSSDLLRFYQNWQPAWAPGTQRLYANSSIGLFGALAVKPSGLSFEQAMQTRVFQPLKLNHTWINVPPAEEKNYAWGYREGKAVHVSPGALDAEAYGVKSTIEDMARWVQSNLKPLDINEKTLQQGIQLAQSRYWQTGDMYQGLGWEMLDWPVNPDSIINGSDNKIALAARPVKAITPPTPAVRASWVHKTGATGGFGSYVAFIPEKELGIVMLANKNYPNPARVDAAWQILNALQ
Summary of the method: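 20 mM phosphate pH 7.0 + 0.01% (detergent screen) or 0.0001% Triton X-100; 5.3 nM AmpC reagent; cpd preinc 15 min RT; nitrocefin (800 uM stock) to start; A480 q20 s × 4 min; Activity was normalised to no-enzyme and no-compound control wells.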
Further: nearly all actives have a fitted effect of over 25% in size.
Potency means the concentration at half of the fitted maximal effect; tags describe the fitted curve by direction and shape.
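Wherever activity change, negative = inhibition is given: 0% = no-compound wells and -100% = no-enzyme wells.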

Structure (SMILES) | Potency | activity change, negative = inhibition
CCn1c(SCc2nc3cc(OC)c(OC)cc3c(=O)[nH]2)nnc1-c1ccncc1 | inconclusive [inhibitor, full curve, poor fit] | –
C[C@H](NC(=O)c1cc2cc(Cl)ccc2n1C)C(=O)N1CCC[C@H]1C(=O)O | inconclusive [inhibitor, full curve, poor fit] | –
Cc1ccc(Nc2nnc(SC(C)C(=O)NCC3CCCO3)s2)cc1C (centres undefined) | inconclusive [inhibitor, full curve, poor fit] | –
CC(NC(=O)Cc1ccccc1)c1cc2c(cc1Br)OCCCO2 (centres undefined) | inconclusive [inhibitor, partial curve, poor fit] | –
CCOC(=O)c1[nH]c(C)c(C(=O)Nc2ccc(C)c(Cl)c2)c1C | inconclusive [inhibitor, full curve, poor fit] | –
CCOC(=O)c1ccccc1NC1OC(=O)c2ccccc21 (centres undefined) | inconclusive [inhibitor, partial curve, poor fit] | –
O=C(NC1CCCCCC1)C1CCCN1S(=O)(=O)c1cccc2cccnc12 (centres undefined) | inconclusive [inhibitor, full curve] | –
COc1cc(OC)c(NC(=S)Nc2cc(Cl)cc(Cl)c2)cc1Cl | inconclusive [inhibitor, partial curve] | –
Clc1ccccc1-c1nnc2sc(-c3ccco3)nn12 | inconclusive [inhibitor, full curve, poor fit] | –
COc1ccc(OC)c(N(CC(=O)Nc2ccc(NC(C)=O)cc2)S(C)(=O)=O)c1 | inconclusive [inhibitor, single point] | –
O=C(CSc1nccn1-c1ccccc1)N1CCc2ccccc21 | – | inactive: -10%
COc1ccc(CN2CCNC(=O)C2CC(=O)NCC2CCOCC2)c(F)c1 (centres undefined) | – | inactive: -13.7%
Cc1ccc(NC(=O)C2CCCN(c3nnc(C)c4c(C)n(-c5ccccc5)nc34)C2)cc1Cl (centres undefined) | – | inactive: -2.45%
COn1c(C)c(C(C)=O)c2c3nonc3ccc21 | inconclusive [inhibitor, full curve] | –
Cc1c2cnn(CC(=O)Nc3ccc(F)cc3F)c(=O)c2c(C)n1Cc1cccc(Cl)c1 | – | inactive: -5.45%
COc1ccc(/C=C2\N=C(SC)N(C)C2=O)cc1 | inconclusive [inhibitor, full curve, poor fit] | –
Cc1ccc(-n2c(SCC(=O)NCc3ccco3)nnc2-c2cccnc2)cc1 | – | inactive: -8.24%
CC(C)N(CCO)C(=O)CCc1nnc(CCCc2ccccc2)o1 | inconclusive [inhibitor, single point] | –
O=C(NC1CCN(Cc2ccccc2)CC1)C1CCN(S(=O)(=O)c2cccc3cccnc23)CC1 | inconclusive [inhibitor, full curve] | –
CSCCC(NC(=O)c1ccco1)C(=O)NCC(c1ccco1)N1CCCCC1 (centres undefined) | – | inactive: 6.86%
O=S(=O)(Cc1cccc(C(F)(F)F)c1)c1ncn[nH]1 | – | inactive: -1.88%
COCCCNc1oc(/C=C/c2ccccc2)nc1C#N | – | inactive: -6.49%
CC(C)c1ccc(/C=C2\SC(=S)N(CCC(=O)N3CCCCC3CCO)C2=O)cc1 (centres undefined) | inconclusive [inhibitor, full curve, poor fit] | –

Structure (SMILES) | Potency | activity change, negative = inhibition
CCCc1nn(C)c2c(=O)[nH]c(-c3cc(S(=O)(=O)N4CCN(C)CC4)ccc3OCC)nc12 | inconclusive [inhibitor, partial curve, poor fit] | –
C#CC[N+]1(CC#Cc2ccccc2)CCCCC1 | inconclusive [inhibitor, partial curve, poor fit] | –
Clc1c(CSc2nc3ccccc3o2)nc2ccccn12 | inconclusive [inhibitor, full curve, poor fit] | –
CC1CCCN(c2sc(S(C)(=O)=O)nc2S(=O)(=O)c2ccc(Cl)cc2)C1 (centres undefined) | – | inactive: -0.661%
CCOC(=O)COc1cccc2c(=O)n(CC(=O)N3CCCc4ccccc43)ccc12 | inconclusive [inhibitor, full curve, poor fit] | –
O=C(CCN1CCOCC1)Nc1ccc(Br)cc1C(=O)c1ccccc1 | – | inactive: -16.5%
Cc1ccc(NC(=O)CSc2nsc(SCC(=O)Nc3ccc(C)cc3C)c2C#N)c(C)c1 | – | inactive: -3.9%
CC(=O)Nc1ccc(C(=O)CN2C(=O)NC3(CCOc4ccccc43)C2=O)c(F)c1 (centres undefined) | inconclusive [inhibitor, full curve, poor fit] | –
CCOc1ccc(NC(=O)CN(C)C(=O)c2cccnc2SC)cc1OCC | – | inactive: 2.81%
Cc1ccc(-n2nc(CO)c(C(=O)NCCc3ccccc3)n2)cc1C | inconclusive [inhibitor, full curve, poor fit] | –
COCCNc1cnn(-c2ccccc2)c(=O)c1Cl | – | inactive: -16.3%
Cc1csc(=NC(=O)c2ccccc2)n1C | inconclusive [inhibitor, single point] | –
CCOc1ccc(N(CC(N)=O)S(=O)(=O)c2ccc(F)cc2)cc1 | inconclusive [inhibitor, full curve, poor fit] | –
CC(=O)c1ccc(NC(=O)c2ccn[nH]2)cc1 | – | inactive: -6.39%
COc1ccc(Br)cc1CN(C)C(=O)Cc1ccc(S(=O)(=O)N2CCOCC2)s1 | inconclusive [inhibitor, single point] | –
COc1cc(-c2noc(C)c2C#CC2(N)CCCCC2)cc(OC)c1OC | – | inactive: -16.7%
CCCn1nnnc1SCC(=O)N1CCOCC1 | inconclusive [inhibitor, full curve] | –
CCCc1c(C(=O)Nc2cc(C)on2)cnn1-c1ccccc1 | – | inactive: -2.82%
Cc1ccc(-c2cc(-c3ccccc3)nc(NN)n2)cc1 | inconclusive [inhibitor, full curve, poor fit] | –
CCOc1ccc2ccccc2c1/C=N/NC(=O)CNC(=O)c1ccccc1F | inconclusive [inhibitor, full curve, poor fit] | –
O=c1[nH]c(=O)n(C2CCCCCC2)c(O)c1C=NC1CCN(Cc2ccccc2)CC1 | inconclusive [inhibitor, full curve, poor fit] | –
O=C(COC(=O)c1ccc2c(c1)OCO2)NCc1ccc(Cl)cc1 | inconclusive [inhibitor, partial curve, poor fit] | –
CC1CN(CCCCSc2ccccc2)CC(C)O1 (centres undefined) | inconclusive [inhibitor, partial curve, poor fit] | –

Structure (SMILES) | Potency | activity change, negative = inhibition
COc1ccc(OC)c(CCNC(=O)CS(=O)(=O)Cc2nc(-c3ccccc3Cl)oc2C)c1 | inconclusive [inhibitor, full curve, poor fit] | –
Cc1ccc(C(=O)C2(C)C3c4cc(Br)ccc4OC(=O)C32C(=O)c2ccco2)cc1 (centres undefined) | inconclusive [inhibitor, full curve, poor fit] | –
COc1ccc(-c2[nH]ncc2-c2cnc(C)s2)c(O)c1 | inconclusive [inhibitor, full curve, poor fit] | –
CC(C)CCNC(=O)c1cn(CC(C)C)c(=O)c2c1c1ccccc1n2C | – | inactive: 1.94%
O=C(CN1CCN(c2ccc(F)cc2)CC1)N1CCOCC1 | inconclusive [inhibitor, partial curve, poor fit] | –
CC(C)CC(CCc1ccccc1)OS(N)(=O)=O (centres undefined) | inconclusive [inhibitor, full curve, poor fit] | –
COc1ccc(C)cc1NCc1cc(=O)oc2cc(-c3ccccc3)c(O)cc12 | – | inactive: -4.94%
O=C(O)CCn1cc(-c2ccc(F)cc2)nc1-c1ccncc1 | – | inactive: 0.319%
Cc1cc(C)cc(NC(=O)CSc2ccc(-c3ccccn3)nn2)c1 | – | inactive: 0.88%
CC(=O)N1CCN(c2ccc(NCc3cccc4ccccc34)cc2)CC1 | inconclusive [inhibitor, full curve, poor fit] | –
CC(C)(C)C(=O)Nc1nc2c(c(=O)[nH]1)CCCC2 | inconclusive [inhibitor, full curve, poor fit] | –
CCCN(Cc1nnc(-c2ccccc2Cl)o1)C(=O)c1cccc(S(=O)(=O)N2CCOCC2)c1 | inconclusive [inhibitor, partial curve] | –
CCCNC(=O)c1ccc(SCC(=O)N(CC)CC)c([N+](=O)[O-])c1 | inconclusive [inhibitor, single point] | –
COc1cc(NC(=O)CCNS(=O)(=O)c2ccc3c(c2)CCC(=O)N3)cc(OC)c1 | inconclusive [inhibitor, partial curve, poor fit] | –
CCn1cc2nc(SCc3cccc(OC)c3)n(Cc3ccc(Cl)cc3)c(=O)c2n1 | – | inactive: -0.597%
CN1CCN(c2ccc(S(=O)(=O)N3CCCCC3)cc2NC(=O)CCc2ccccc2)CC1 | – | inactive: 3.67%
Cc1cc(C)nc(SCC(=O)Nc2ccc(N3CCOCC3)c(Cl)c2)n1 | – | inactive: 2.11%
CCCc1[nH]nc2c1C(c1cc(OC)cc(OC)c1)C(C#N)=C(N)O2 (centres undefined) | – | inactive: -6.32%
COc1cc2nc(CN(C)Cc3ccc(C(C)(C)C)cc3)[nH]c(=O)c2cc1OC | inconclusive [inhibitor, full curve, poor fit] | –
CC(C)CCN1CCNC(=O)C1CC(=O)N(C)CCCN1CCOCC1 (centres undefined) | inconclusive [inhibitor, full curve] | –
Cc1ccc2c(N)c(C#N)sc2n1 | inconclusive [inhibitor, full curve, poor fit] | –
COc1ccc(CNC(=O)[C@H](C)NC(=O)C2CC(=O)N(c3ccc(OC)cc3)C2)cc1 (some centres undefined) | inconclusive [inhibitor, single point] | –
O=C(c1cc(-c2ccccc2)on1)N1CCC2(CC1)OCCO2 | inconclusive [inhibitor, full curve, poor fit] | –
